# Assay results as given in PubChem BioAssay AID624418 (National Center for Advancing Translational Sciences (NCATS), 2012).
# About 530 (0.13%) of roughly 410,000 compounds were called active. Inconclusive means that the source gave no clear call. Such entries were picked first, then a sample of the others. The call rests on the fitted dose curve; in most records, active means well fitted inhibition curve with a large enough effect; inconclusive means small, poorly fitted or top-dose-only effect, or another doubt; inactive means no such curve, though single readings can be large or run the other way. A potency beside an inconclusive call is a rough fit, not a confirmed value.
# Assay: qHTS of GLP-1 Receptor Inverse Agonists: Cytotox Screen
# Details: HEK293 cAMP-luciferase reporter cells, luminescence, 24 h; activity change, negative = inhibition: at 38.3 µM (top of the series)
# Excerpt: The overall goal of this project was to develop a novel assay for discovering small molecule ligands for class B1 G protein-coupled receptors (GPCRs). Very few agonists (or inverse agonists) with generally weak activity for this entire group of physiologically important receptors are known to date. To establish proof-of-principle that this critical bottleneck can be overcome with a suitable screening approach, our studies focused on the class B1 receptor for glucagon-like peptide-1 (GLP-1R), a potential therapeutic target for diabetes and neurodegenerative disease.
# The assay was developed using a cell-based functional readout. Toward this goal, stably transfected HEK293 cell clones were established that co-express (i) a cAMP-responsive luciferase reporter gene, and (ii) constitutively active GLP-1R that upon ligand interaction inhibit (inverse agonists) the luciferase activity. In addition, two control cell lines were developed: (i) one that express only the cAMP-responsive reporter gene to enable initial exclusion of GLP-1R independent effects of candidate probes; and (ii) one with the reported gene cloned with another constitutively active orphan receptor GPR119 to enable exclusion of GLP-1R independent inhibitor effects of candidate inverse agonists.
# To that end, this assay was optimized for 1536-well format and screened against the MLSMR. Then the same collection was run in this cytotoxicity assay where inhibition was the undesired outcome.
# NIH Molecular Libraries Probe Production Network [MLPCN]
# NIH Chemical Genomics Center [NCGC]
# PI Name: Martin Beinborn, Tufts Medical Center
# Six ul of cell suspension (200 cells/uL in DMEM + 10% Nu serum + 1% pen-strep) is dispensed in a white solid 1536-well plate. The plates are incubated for 12 hours at 37 deg C at 5% CO2 followed by addition of 23 nL compounds. After 24 hr incubation at 37 deg C and 5% CO2, 3 uL of luciferase assay detection reagent is added. A luminescence read is obtained on the PerkinElmer Viewlux after 12 min incubation at room temperature.
# On the % scale 0 is the no-effect control and ±100 the full control effect; potency means the concentration at half of the fitted maximal effect.
SMILES,Potency,"activity change, negative = inhibition"
O=C(CN1C(=O)/C(=C/c2ccco2)SC1=S)Nc1ccc(C(=O)O)c(O)c1,"inconclusive: 11.2 µM [inhibitor, single point]",
Cc1ccc(/C=C/C(=O)c2ccc([N+](=O)[O-])o2)cc1,,inactive: -18.1%
CCC(=O)NC(c1ccc(Cl)cc1Cl)c1ccc2cccnc2c1O (stereo not drawn),"inconclusive: 0.501 µM [inhibitor, full curve, poor fit]",
COc1ccc(-c2[nH]c(-c3ccccc3)nc2SCC(=O)Nc2ccc3c(c2)OCO3)cc1,"inconclusive: 28.2 µM [inhibitor, single point]",
Cc1ccc(-c2ccc(/C=C3/NC(=O)NC3=O)o2)cc1[N+](=O)[O-],"inconclusive: 28.2 µM [inhibitor, single point]",
COc1ccc(N(CC(=O)Nc2cccc(OC)c2)S(=O)(=O)c2c(C)nn(C)c2C)cc1,"inconclusive: 10 µM [inhibitor, single point]",
Cc1ccc(OCC(=O)NCCNC(=O)c2cnccn2)cc1,"inconclusive: 25.1 µM [inhibitor, single point]",
CC1(C(=O)NS(=O)(=O)c2cccc(C#N)c2)CCN1C(=O)CCC1CCCC1 (stereo not drawn),,inactive: 0.49%
Cc1csc2c(N3CCN(C(=O)NC(C)(C)C)CC3)ncnc12,"inconclusive: 28.2 µM [inhibitor, single point]",
Cc1cccc(NC(=O)c2ccccc2NC(=O)Cc2ccccc2)c1C,"inconclusive: 17.8 µM [inhibitor, single point]",
Cc1cccc(N2CCN(C(=O)c3cn(C)c(=O)c4c3c3ccccc3n4C)CC2)c1C,"inconclusive: 11.2 µM [inhibitor, partial curve, poor fit]",
CC(C)OC(=O)C(C(=O)C(F)(F)F)c1cc(NS(=O)(=O)c2ccc3ccccc3c2)c2ccccc2c1O (stereo not drawn),"inconclusive: 28.2 µM [inhibitor, single point]",
Cc1ccc(S(=O)(=O)N2CCCc3cc(NC(=O)c4ccc(C(F)(F)F)cc4)ccc32)cc1,,inactive: 8.33%
COc1cccc(C(=O)c2cn(CC(=O)Nc3cccc(Cl)c3C)c3nc(C)ccc3c2=O)c1,,inactive: 10.4%
O=[N+]([O-])c1ccc(S(=O)(=O)c2ccccc2)nc1,,inactive: -18.8%
CCOc1ccc2[nH]c(=O)c(CN(CCN3CCCC3)C(=S)Nc3ccccc3OCC)cc2c1,"inconclusive: 11.2 µM [inhibitor, partial curve, poor fit]",
O=C(Nc1ccccc1C(=O)O)c1ncn[nH]1,,inactive: 44.8%
CNC(=S)NNC(=O)COc1ccc(C)c(C)c1,"inconclusive: 28.2 µM [inhibitor, single point]",
